This is one part of the list. Repeats are few or missing, and single values can be far off.
System: LB2518-MEL
Assay: cell count relative to DMSO control; melanoma cells; higher = more viable cells
Conditions: library dose: standard library concentration; 72 h
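Note: cells treated in 1,536-well plates, then fixed and DAPI-stained, with nuclei counted from automated high-throughput microscope images.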

Row | SMILES | cell count [%]
1 | CN1CCN(c2ccc3nc(-c4c(N)c5c(F)cccc5[nH]c4=O)[nH]c3c2)CC1 [Dovitinib] + O=C(O)C(=O)Nc1sc2c(c1C(=O)O)CCNC2 [TCS401] (first compound 0.5 µM, partner dose 8.33333 µM) | 53.6
2 | C[C@@H](Oc1cc(-c2cnn(C3CCNCC3)c2)cnc1N)c1c(Cl)ccc(F)c1Cl [Crizotinib] + Cn1nnc2c(C(N)=O)ncn2c1=O [temozolomide] (first compound 1 µM, partner dose 10 µM) | 75.1
3 | C=CCNC1=C2C[C@@H](C)C[C@H](OC)[C@H](O)[C@@H](C)/C=C(\C)[C@H](OC(N)=O)[C@@H](OC)/C=C\C=C(/C)C(=O)NC(=CC1=O)C2=O [Tanespimycin] + OCCn1cc(-c2cnc3nnn(Cc4ccc5ncccc5c4)c3n2)cn1 [PF04217903] (first compound 0.01 µM, partner dose 5 µM) | 78.3
4 | C[C@@H](Oc1cc(-c2cnn(C3CCNCC3)c2)cnc1N)c1c(Cl)ccc(F)c1Cl [Crizotinib] + C=CCn1c(=O)c2cnc(Nc3ccc(N4CCN(C)CC4)cc3)nc2n1-c1cccc(C(C)(C)O)n1 [MK1775] (first compound 1 µM, partner dose 0.1 µM) | 69.7
5 | C=CCNC1=C2C[C@@H](C)C[C@H](OC)[C@H](O)[C@@H](C)/C=C(\C)[C@H](OC(N)=O)[C@@H](OC)/C=C\C=C(/C)C(=O)NC(=CC1=O)C2=O [Tanespimycin] + OCc1c[nH]c2ccccc12 [Indole-3-carbinol] (first compound 0.01 µM, partner dose 4 µM) | 75.7
6 | CS(=O)(=O)CCNCc1ccc(-c2ccc3ncnc(Nc4ccc(OCc5cccc(F)c5)c(Cl)c4)c3c2)o1 [lapatinib] + NC(=O)Nc1cc(-c2cccc(F)c2)sc1C(=O)N[C@H]1CCCNC1 [AZD7762] (first compound 4 µM, partner dose 0.1 µM) | 69.5
7 | CN1CCN(c2ccc3nc(-c4c(N)c5c(F)cccc5[nH]c4=O)[nH]c3c2)CC1 [Dovitinib] + Nc1ncn([C@H]2C[C@H](O)[C@@H](CO)O2)c(=O)n1 [decitabine] (first compound 0.5 µM, partner dose 0.5 µM) | 53.3
8 | CN1CCN(c2ccc3nc(-c4c(N)c5c(F)cccc5[nH]c4=O)[nH]c3c2)CC1 [Dovitinib] + COc1cc2ncnc(Nc3ccc(Oc4ccccc4)cc3)c2cc1OC [SrcI1] (first compound 0.5 µM, partner dose 10 µM) | 63.1
9 | CNC(=O)c1cc(Oc2ccc(NC(=O)Nc3ccc(Cl)c(C(F)(F)F)c3)cc2)ccn1 [sorafenib] + COc1cc2ncnc(Nc3ccc(Oc4ccccc4)cc3)c2cc1OC [SrcI1] (first compound 2 µM, partner dose 10 µM) | 106
10 | CS(=O)(=O)CCNCc1ccc(-c2ccc3ncnc(Nc4ccc(OCc5cccc(F)c5)c(Cl)c4)c3c2)o1 [lapatinib] + COc1ccc(COc2ccc(Cc3cnc(N)nc3N)cc2OC)cc1 [GW2580] (first compound 4 µM, partner dose 5 µM) | 78.5
11 | CN1CCN(c2ccc3nc(-c4c(N)c5c(F)cccc5[nH]c4=O)[nH]c3c2)CC1 [Dovitinib] + COc1ccc(COc2ccc(Cc3cnc(N)nc3N)cc2OC)cc1 [GW2580] (first compound 0.5 µM, partner dose 5 µM) | 53.9
12 | C[C@@H](Oc1cc(-c2cnn(C3CCNCC3)c2)cnc1N)c1c(Cl)ccc(F)c1Cl [Crizotinib] + c1cc(-c2cnn3cc(-c4ccc(OCCN5CCCCC5)cc4)cnc23)ccn1 [Dorsomorphin] (first compound 1 µM, partner dose 2 µM) | 55.2
13 | C=CCNC1=C2C[C@@H](C)C[C@H](OC)[C@H](O)[C@@H](C)/C=C(\C)[C@H](OC(N)=O)[C@@H](OC)/C=C\C=C(/C)C(=O)NC(=CC1=O)C2=O [Tanespimycin] + Cc1cc([N+](=O)[O-])ccc1NS(=O)(=O)c1cc(Cl)ccc1Cl [FH535] (first compound 0.01 µM, partner dose 5 µM) | 66
14 | C=CCNC1=C2C[C@@H](C)C[C@H](OC)[C@H](O)[C@@H](C)/C=C(\C)[C@H](OC(N)=O)[C@@H](OC)/C=C\C=C(/C)C(=O)NC(=CC1=O)C2=O [Tanespimycin] + C[C@]1(c2nc3c(C(N)=O)cccc3[nH]2)CCCN1 [Veliparib] (first compound 0.01 µM, partner dose 7 µM) | 53.8
